By Kd is commonly meant the equilibrium constant for the complex coming apart. The term koff denotes the first-order rate constant of dissociation. What is called kon is the second-order rate constant of association. A word on the EC80: it is the point of the concentration-response curve where the effect stands at 80%.

The source of these data is patent publication US20240101686A1 (SIMCERE ZAIMING PHARMACEUTICAL, published 2024).

Like-named read-outs stand apart in the source and are kept apart here.

The target of experiment [1] is T1, Her2 protein (human, UniProt P04626 fragment).
T1 construct: Bought protein; also called human Her2 protein

In experiment [2] the target is T2, human EGFRvIII-His tag protein (human, UniProt P00533 fragment).
T2 construct: Made in HEK293E, purified on nickel column; also called human EGFRvIII protein; not shown: His tag

The target in experiment [3] is T1, Her2 protein. The source holds these as a separate data set.
The target in experiment [4] is T1, Her2 protein. This is another data set of the same source.
In experiment [5] the target is T1, Her2 protein. The source holds these as a separate data set.
Experiment [6] has as its target T1, Her2 protein. This is another data set of the same source.
Experiment [7] addresses T3, human EGFR protein (human, UniProt P00533 fragment).
T3 construct: also called human EGFR-His; human EGFR-ECD protein; not shown: His tag

Experiment [8] has as its target T4, murine EGFR protein (murine, UniProt Q01279 25-647).
T4 construct: Bought protein

The target of experiment [9] is T3, human EGFR protein. The source holds these as a separate data set.
Experiment [10] has as its target T1, Her2 protein. This is another data set of the same source.
Experiment [11] deals with T1, Her2 protein. The source holds these as a separate data set.
The target in experiment [12] is T1, Her2 protein. This is another data set of the same source.
In a further experiment the target is T5, monkey EGFR protein (cynomolgus monkey, UniProt P55245 fragment (rhesus entry)).
T5 construct: Bought protein (SB 90285-C08H); also called cynomolgus monkey EGFR

Experiment [13] deals with T4, murine EGFR protein. This is another data set of the same source.

B1: S008-NB149-15 (Fc fusion)
chain: QLQLVESGGGLVRPGGSLRLSCAASGSIFSRSGATWYRQAPGKQRELVALLTRDGHTDYPVVSVKGRFTISKDNAKNTVYLQMNSLQPEDTAVYYCNAIPPLGSWGRGTQVTVSS[human IgG1 Fc with changes not shown]
notes: Tested as VHH-Fc; order VHH-hinge-Fc inferred
For the molecule B1, the OD450 with Her2 protein [1] worked out at 0.18; with Her2 protein [3], 0.17; with Her2 protein [4] it was 0.13; in the experiment with Her2 protein [5], 0.15; in the experiment with Her2 protein [6], 0.13; in the experiment with Her2 protein [10], 0.2. Also, the OD450 with Her2 protein [11] and in the experiment with Her2 protein [12] was 0.16 each time. In addition, the dissociation constant (Kd) was 39.1 nM in experiment [2], 45.9 nM in the experiment with human EGFR protein [7] and 8.3 nM with monkey EGFR protein. Moreover, the koff in experiment [2] was determined as 0.0167 s⁻¹; in the experiment with human EGFR protein [7], 0.00695 s⁻¹; with monkey EGFR protein it was 0.000679 s⁻¹. The kon is 427000 M⁻¹ s⁻¹ in [2], 151000 M⁻¹ s⁻¹ in the experiment with human EGFR protein [7] and 81800 M⁻¹ s⁻¹ with monkey EGFR protein. Also, the binding result with murine EGFR protein [8] is recorded as “no binding (tested: 200 nM (highest antigen concentration))”. The same molecule had an EC80 with human EGFR protein [9] of 2.4 µg/mL.

B2: S008-NB148-25 (Fc fusion)
chain: EVQLVESGGGLVQPGGSLRLSCAVSQSISSINAMDWYRQAPGKQRELVAIIFNNGRTNYADSVKGRFTISRDNARNTVYLQMNSLKPEDTAVYYCNIVPPLRNWGQGTQVTVSS[human IgG1 Fc with changes not shown]
notes: as for B1
As to B2, the OD450 was found to be 0.24 with Her2 protein [1]; 0.11 in the experiment with Her2 protein [3]; 0.11 with Her2 protein [4]; 0.11 with Her2 protein [5]; 0.1 with Her2 protein [6]; 0.14 with Her2 protein [10]. For the same molecule, the OD450 in the experiment with Her2 protein [11] turned out to be 0.16; with Her2 protein [12] it was 0.11. Moreover, the figures for the Kd (in [2]; in the experiment with human EGFR protein [7]; in the experiment with monkey EGFR protein) were 17.2 nM, 73.1 nM and 24.4 nM, respectively. The koff in experiment [2] was determined as 0.000727 s⁻¹; with human EGFR protein [7], 0.00141 s⁻¹; with monkey EGFR protein, 0.000583 s⁻¹. Besides, the values for the kon (in experiment [2]; with human EGFR protein [7]; with monkey EGFR protein) were 42400 M⁻¹ s⁻¹, 19200 M⁻¹ s⁻¹ and 23900 M⁻¹ s⁻¹, respectively. Moreover, the binding result with murine EGFR protein [8] was “no binding (tested: 200 nM (highest antigen concentration))”. It took 8.3 µg/mL to reach the 80% level with human EGFR protein [9] (EC80).

B3: S008-NB149-12 (Fc fusion)
chain: QVQLVESGGGLVQPGGSLRLSCVVSESISVINAMTWYRQAPGKQRELVALISRGGSTNYADSVKGRFTISRDNAKNSVYLQMNSLKPEDTALYYCNVVPPLGSWGQGTQVTVSS[human IgG1 Fc with changes not shown]
notes: as for B1
Take B3: the OD450 with Her2 protein [1] amounted to 0.17; with Her2 protein [3], 0.14; in the experiment with Her2 protein [4], 0.11; with Her2 protein [5], 0.1; with Her2 protein [6], 0.15; with Her2 protein [10] it was 0.09. Also, the OD450 turned out to be 0.15 with Her2 protein [11] and 0.13 in the experiment with Her2 protein [12]. Further, the Kd in [2] was 7.89 nM; with human EGFR protein [7] it was 39 nM; in the experiment with monkey EGFR protein, 8.3 nM. Also, the koff in experiment [2] came to 0.000475 s⁻¹; with human EGFR protein [7] it was 0.0017 s⁻¹; in the experiment with monkey EGFR protein, 0.000461 s⁻¹. The kon in experiment [2] amounted to 60200 M⁻¹ s⁻¹; with human EGFR protein [7], 43700 M⁻¹ s⁻¹; in the experiment with monkey EGFR protein, 55600 M⁻¹ s⁻¹. In addition, in the experiment with murine EGFR protein [8], the binding result was “no binding (tested: 200 nM (highest antigen concentration))”. In the experiment with human EGFR protein [9], this molecule gave an EC80 of 2.2 µg/mL.

B4: S008-NB149-20 (Fc fusion)
chain: EVQVVESGGGLVQPGGSLRLSCAASGSGFTINAMTWYRRAPGKERELVAIITNGGITNYADSVKGRFTISRDNAKSTVYLQMDGLEPEDTAVYYCNIVPPVYWGQGTQVTVSS[human IgG1 Fc with changes not shown]
notes: as for B1
As to B4, the OD450 with Her2 protein [1] stood at 0.18; in the experiment with Her2 protein [3], 0.18; with Her2 protein [4], 0.13; in the experiment with Her2 protein [5], 0.14; with Her2 protein [6], 0.17; with Her2 protein [10], 0.14. The OD450 with Her2 protein [11] amounted to 0.16; with Her2 protein [12], 0.12. The binding result with murine EGFR protein [8] is “no binding (tested: 200 nM (highest antigen concentration))”. Further, binding in the experiment with monkey EGFR protein was put at a Kd of 2.63 nM. This molecule also gave a koff with monkey EGFR protein of 0.000102 s⁻¹. In the experiment with monkey EGFR protein, this molecule gave a kon of 38600 M⁻¹ s⁻¹.

B5: S008-NB149-60 (Fc fusion)
chain: QLQLVESGGGLVQPGGSLRLSCAASRSISSINTMTWYRYQGPGKERELVALITLGGTTNYADSVKGRFTISRDDAKNTLYLEMNSLKPEDTAVYYCNAVPPFRWGQGTQVTVSS[human IgG1 Fc with changes not shown]
notes: as for B1
Turning to B5, the OD450 is 0.23 in the experiment with Her2 protein [1]; 0.16 with Her2 protein [3]; 0.1 in the experiment with Her2 protein [4]; 0.15 with Her2 protein [5]; 0.17 with Her2 protein [6]; 0.15 with Her2 protein [10]. In addition, the OD450 in the experiment with Her2 protein [11] was determined as 0.14; with Her2 protein [12], 0.19. In the experiment with murine EGFR protein [8], the binding result is “no binding (tested: 200 nM (highest antigen concentration))”. For the same molecule, the Kd with monkey EGFR protein is 1.68 nM. The molecule also had a koff in the experiment with monkey EGFR protein of 0.000148 s⁻¹. Besides, in the experiment with monkey EGFR protein, the association rate constant (kon) is 88200 M⁻¹ s⁻¹.

B6: S008-NB148-5 (Fc fusion)
chain: QLQLVESGGGLVQAGGSLRLSCAVSISTFTTNGWDWYRQAPGKQRELVALISNDGTTTYTDSVKGRFTISRDGAKNTVYLQMNNLKPEDTAVYYCNTIPPAGSWGQGTQVTVSS[human IgG1 Fc with changes not shown]
notes: as for B1
Consider B6, for which the OD450 worked out at 0.18 with Her2 protein [1]; 0.11 with Her2 protein [3]; 0.18 with Her2 protein [4]; 0.12 in the experiment with Her2 protein [5]; 0.11 in the experiment with Her2 protein [6]; 0.09 in the experiment with Her2 protein [10]. Also, the values for the OD450 with Her2 protein [11] and in the experiment with Her2 protein [12] were 0.32 and 0.1, respectively. Moreover, the Kd came to 2.98 nM in experiment [2], 9.75 nM with human EGFR protein [7] and 3.25 nM with monkey EGFR protein. Moreover, the koff in [2] stood at 9.47e-05 s⁻¹; with human EGFR protein [7], 0.000325 s⁻¹; with monkey EGFR protein, 0.000158 s⁻¹. Moreover, the kon came to 31800 M⁻¹ s⁻¹ in experiment [2], 33300 M⁻¹ s⁻¹ with human EGFR protein [7] and 48700 M⁻¹ s⁻¹ with monkey EGFR protein. Also, the binding result in the experiment with murine EGFR protein [8] is “no binding (tested: 200 nM (highest antigen concentration))”. Further, the 80% effect level with human EGFR protein [9] (EC80) was put at 20.1 µg/mL.

B7: S008-NB148-8 (Fc fusion)
chain: EVQLVESGGGLVQAGGSLRLSCVVSGSTFSSYAMGWYRQAPGKQRELVAAISSGVSANVADSLKGRFAISRDNAKNAVYLQMNSLKPEDTAVYYCNTLPRSMPYWGKGTLVTVSS[human IgG1 Fc with changes not shown]
notes: as for B1
For the molecule B7, the OD450 with Her2 protein [1] turned out to be 0.12; with Her2 protein [3], 0.12; in the experiment with Her2 protein [4] it was 0.1; with Her2 protein [5], 0.11; with Her2 protein [6], 0.1; in the experiment with Her2 protein [10], 0.08. Further, the OD450 with Her2 protein [11] came to 0.09; in the experiment with Her2 protein [12], 0.1. Further, the Kd in experiment [2] was 42.5 nM; in the experiment with human EGFR protein [7], 66.1 nM; in the experiment with murine EGFR protein [13], 53 nM; with monkey EGFR protein, 2.59 nM. Besides, the koff came out at 0.00325 s⁻¹ in [2], 0.00328 s⁻¹ with human EGFR protein [7], 0.0171 s⁻¹ with murine EGFR protein [13] and 0.000172 s⁻¹ in the experiment with monkey EGFR protein. The kon in experiment [2] was determined as 76600 M⁻¹ s⁻¹; in the experiment with human EGFR protein [7], 49700 M⁻¹ s⁻¹; with murine EGFR protein [13], 323000 M⁻¹ s⁻¹; with monkey EGFR protein it was 66300 M⁻¹ s⁻¹. The EC80 in the experiment with human EGFR protein [9] was determined as 76 µg/mL.

B8: S008-NB149-22 (Fc fusion)
chain: QVQLVESGGGLVQAGGSLRLSCVASGRFPSIYRMAWFRQAPGKERDFVAAINWGGTATYYEDSVKGRFTISRDNTKNTVWLQMNSLKPEDTAVYYCAAGTGTTYTPQRGDAYGYWGQGTQVTVSS[human IgG1 Fc with changes not shown]
notes: as for B1
With B8, the OD450 with Her2 protein [1] was 0.17; in the experiment with Her2 protein [3], 0.12; with Her2 protein [4], 0.08; in the experiment with Her2 protein [5] it was 0.16; with Her2 protein [6], 0.12; with Her2 protein [10], 0.11. Further, the OD450 was 0.11 in the experiment with Her2 protein [11] and 0.08 in the experiment with Her2 protein [12]. Moreover, the Kd in experiment [2] is 30.7 nM; with human EGFR protein [7], 120 nM; with monkey EGFR protein, 9.55 nM. Moreover, the values for the koff (in experiment [2]; in the experiment with human EGFR protein [7]; with monkey EGFR protein) were 0.00142 s⁻¹, 0.00102 s⁻¹ and 0.000685 s⁻¹, respectively. The kon in experiment [2] came to 46400 M⁻¹ s⁻¹; with human EGFR protein [7], 8490 M⁻¹ s⁻¹; with monkey EGFR protein, 71700 M⁻¹ s⁻¹. For the same molecule, the binding result with murine EGFR protein [8] is listed as “no binding (tested: 200 nM (highest antigen concentration))”. The molecule also gave an EC80 in the experiment with human EGFR protein [9] of 4.6 µg/mL.
